# The other results are listed elsewhere or left out.
# Tests used:
# Assay in all cases: glycan array binding signal (z-score within array); higher = stronger binding
# Conditions in all cases: glycan notation: IUPAC condensed, linker removed
# [1] = target: Neu5Ac(a2-3)Gal(b1-4)GlcNAc(b1-6)GalNAc
# Outline: (§1)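 The Consortium for Functional Glycomics database supplied 3228 glycan arrays, of which those lacking an available protein sequence were dropped. The binding signal, a within-array Z-score, was averaged across arrays of the same protein sequence and across linkers. Negative scores can be read as non-binding.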
# [2] = target: Neu5Ac(a2-3)Gal(b1-4)GlcNAc(b1-6)[Gal(b1-3)]GalNAc
# Outline: as §1
# [3] = target: Neu5Ac(a2-3)Gal(b1-4)GlcNAc(b1-6)[Neu5Ac(a2-3)Gal(b1-3)]GalNAc
# Outline: as §1
# [4] = target: Neu5Ac(a2-3)Gal(b1-4)GlcNAc6S
# Outline: as §1
# [5] = target: Neu5Ac(a2-3)Gal(b1-4)[Fuc(a1-3)]GlcNAc
# Outline: as §1
# [6] = target: Neu5Ac(a2-3)Gal(b1-4)[Fuc(a1-3)]GlcNAc(b1-2)Man
# Outline: as §1
# [7] = target: Neu5Ac(a2-3)Gal(b1-4)[Fuc(a1-3)]GlcNAc(b1-3)Gal
# Outline: as §1
# [8] = target: Neu5Ac(a2-3)Gal(b1-4)[Fuc(a1-3)]GlcNAc(b1-3)Gal(b1-4)GlcNAc
# Outline: as §1
# [9] = target: Neu5Ac(a2-3)Gal(b1-4)[Fuc(a1-3)]GlcNAc(b1-3)Gal(b1-4)[Fuc(a1-3)]GlcNAc(b1-3)Gal(b1-4)[Fuc(a1-3)]GlcNAc
# Outline: as §1
# [10] = target: Neu5Ac(a2-3)Gal(b1-4)[Fuc(a1-3)]GlcNAc(b1-3)GalNAc
# Outline: as §1
# [11] = target: Neu5Ac(a2-3)Gal(b1-4)[Fuc(a1-3)]GlcNAc(b1-6)[Gal(b1-3)]GalNAc
# Outline: as §1
# [12] = target: Neu5Ac(a2-3)Gal(b1-4)[Fuc(a1-3)]GlcNAc(b1-6)[Neu5Ac(a2-3)Gal(b1-3)]GalNAc
# Outline: as §1
# [13] = target: Neu5Ac(a2-3)Gal(b1-4)[Fuc(a1-3)]GlcNAc6S
# Outline: as §1
# [14] = target: Neu5Ac(a2-3)Gal6S(b1-4)GlcNAc
# Outline: as §1
# [15] = target: Neu5Ac(a2-3)Gal6S(b1-4)[Fuc(a1-3)]GlcNAc
# Outline: as §1
# [16] = target: Neu5Ac(a2-3)GalNAc
# Outline: as §1
# [17] = target: Neu5Ac(a2-3)GalNAc(b1-4)GlcNAc
# Outline: as §1
# [18] = target: Neu5Ac(a2-3)[GalNAc(b1-4)]Gal(b1-4)Glc
# Outline: as §1
# [19] = target: Neu5Ac(a2-3)[GalNAc(b1-4)]Gal(b1-4)GlcNAc
# Outline: as §1
# [20] = target: Neu5Ac(a2-3)[GalNAc(b1-4)]Gal(b1-4)GlcNAc(b1-3)GalNAc
# Outline: as §1
# [21] = target: Neu5Ac(a2-3)[Neu5Ac(a2-6)]GalNAc
# Outline: as §1
# [22] = target: Neu5Ac(a2-6)Gal
# Outline: as §1
# [23] = target: Neu5Ac(a2-6)Gal(b1-3)GlcNAc(b1-3)[Gal(b1-4)GlcNAc(b1-6)]Gal(b1-4)Glc
# Outline: as §1
# [24] = target: Neu5Ac(a2-6)Gal(b1-4)Glc
# Outline: as §1
# [25] = target: Neu5Ac(a2-6)Gal(b1-4)GlcNAc
# Outline: as §1
# [26] = target: Neu5Ac(a2-6)Gal(b1-4)GlcNAc(b1-2)Man
# Outline: as §1
# [27] = target: Neu5Ac(a2-6)Gal(b1-4)GlcNAc(b1-2)Man(a1-3)Man(b1-4)GlcNAc(b1-4)GlcNAc
# Outline: as §1
# [28] = target: Neu5Ac(a2-6)Gal(b1-4)GlcNAc(b1-2)Man(a1-3)[Gal(b1-4)GlcNAc(b1-2)Man(a1-6)]Man(b1-4)GlcNAc(b1-4)GlcNAc
# Outline: as §1
# [29] = target: Neu5Ac(a2-6)Gal(b1-4)GlcNAc(b1-2)Man(a1-3)[GlcNAc(b1-2)Man(a1-6)]Man(b1-4)GlcNAc(b1-4)GlcNAc
# Outline: as §1
# [30] = target: Neu5Ac(a2-6)Gal(b1-4)GlcNAc(b1-2)Man(a1-3)[GlcNAc(b1-4)][Neu5Ac(a2-6)Gal(b1-4)GlcNAc(b1-2)Man(a1-6)]Man(b1-4)GlcNAc(b1-4)GlcNAc
# Outline: as §1
# [31] = target: Neu5Ac(a2-6)Gal(b1-4)GlcNAc(b1-2)Man(a1-3)[Man(a1-6)]Man(b1-4)GlcNAc(b1-4)GlcNAc
# Outline: as §1
# [32] = target: Neu5Ac(a2-6)Gal(b1-4)GlcNAc(b1-2)Man(a1-3)[Neu5Ac(a2-3)Gal(b1-4)GlcNAc(b1-2)Man(a1-6)]Man(b1-4)GlcNAc(b1-4)GlcNAc
# Outline: as §1
# [33] = target: Neu5Ac(a2-6)Gal(b1-4)GlcNAc(b1-2)Man(a1-3)[Neu5Ac(a2-6)Gal(b1-4)GlcNAc(b1-2)Man(a1-6)]Man(b1-4)GlcNAc(b1-4)GlcNAc
# Outline: as §1
# [34] = target: Neu5Ac(a2-6)Gal(b1-4)GlcNAc(b1-2)Man(a1-3)[Neu5Ac(a2-6)Gal(b1-4)GlcNAc(b1-2)Man(a1-6)]Man(b1-4)GlcNAc(b1-4)[Fuc(a1-6)]GlcNAc
# Outline: as §1
# [35] = target: Neu5Ac(a2-6)Gal(b1-4)GlcNAc(b1-2)Man(a1-6)Man(b1-4)GlcNAc(b1-4)GlcNAc
# Outline: as §1
# [36] = target: Neu5Ac(a2-6)Gal(b1-4)GlcNAc(b1-2)Man(a1-6)[Gal(b1-4)GlcNAc(b1-2)Man(a1-3)]Man(b1-4)GlcNAc(b1-4)GlcNAc
# Outline: as §1
# [37] = target: Neu5Ac(a2-6)Gal(b1-4)GlcNAc(b1-2)Man(a1-6)[GlcNAc(b1-2)Man(a1-3)]Man(b1-4)GlcNAc(b1-4)GlcNAc
# Outline: as §1
# [38] = target: Neu5Ac(a2-6)Gal(b1-4)GlcNAc(b1-2)Man(a1-6)[Man(a1-3)]Man(b1-4)GlcNAc(b1-4)GlcNAc
# Outline: as §1
# [39] = target: Neu5Ac(a2-6)Gal(b1-4)GlcNAc(b1-2)[Neu5Ac(a2-6)Gal(b1-4)GlcNAc(b1-4)]Man(a1-3)[GlcNAc(b1-4)][Neu5Ac(a2-6)Gal(b1-4)GlcNAc(b1-2)[Neu5Ac(a2-6)Gal(b1-4)GlcNAc(b1-6)]Man(a1-6)]Man(b1-4)GlcNAc(b1-4)GlcNAc
# Outline: as §1
# [40] = target: Neu5Ac(a2-6)Gal(b1-4)GlcNAc(b1-2)[Neu5Ac(a2-6)Gal(b1-4)GlcNAc(b1-4)]Man(a1-3)[GlcNAc(b1-4)][Neu5Ac(a2-6)Gal(b1-4)GlcNAc(b1-4)Man(a1-6)]Man(b1-4)GlcNAc(b1-4)GlcNAc
# Outline: as §1
# [41] = target: Neu5Ac(a2-6)Gal(b1-4)GlcNAc(b1-2)[Neu5Ac(a2-6)Gal(b1-4)GlcNAc(b1-6)]Man(a1-6)[Neu5Ac(a2-6)Gal(b1-4)GlcNAc(b1-2)Man(a1-3)][GlcNAc(b1-4)]Man(b1-4)GlcNAc(b1-4)GlcNAc
# Outline: as §1
# [42] = target: Neu5Ac(a2-6)Gal(b1-4)GlcNAc(b1-3)Gal(b1-3)GlcNAc
# Outline: as §1
# [43] = target: Neu5Ac(a2-6)Gal(b1-4)GlcNAc(b1-3)Gal(b1-4)GlcNAc
# Outline: as §1
# [44] = target: Neu5Ac(a2-6)Gal(b1-4)GlcNAc(b1-3)Gal(b1-4)GlcNAc(b1-2)Man(a1-3)[Neu5Ac(a2-6)Gal(b1-4)GlcNAc(b1-3)Gal(b1-4)GlcNAc(b1-2)Man(a1-6)]GalNAc
# Outline: as §1
# [45] = target: Neu5Ac(a2-6)Gal(b1-4)GlcNAc(b1-3)Gal(b1-4)GlcNAc(b1-3)Gal(b1-4)GlcNAc
# Outline: as §1
# [46] = target: Neu5Ac(a2-6)Gal(b1-4)GlcNAc(b1-3)Gal(b1-4)GlcNAc(b1-3)Gal(b1-4)GlcNAc(b1-2)Man(a1-3)[Neu5Ac(a2-6)Gal(b1-4)GlcNAc(b1-3)Gal(b1-4)GlcNAc(b1-3)Gal(b1-4)GlcNAc(b1-2)Man(a1-6)]GalNAc
# Outline: as §1
binder,measurement,setting,value
PX9961V-pdi-562-26-562 (Parabacteroides distasonis) (protein) EIFSEITTDNYYQNSNNIYAALVNNYAKAFSTGWSDARYFLQEVTADQLMIPTRGKHGYNGGEYVRLHEHKWTVEENFVYNGWAAPFQGIALCNNTLSDFENLDFSTFKLTEETKNEYIAELRALRVWNYMFLIDFFRHVPIVTDIEEVKAQSTPLEVFNFMESELLAILPDLPKNRGVSRFDQAGVASILVRLYLNAEKWIGISKYDECEQMAQAILDGKYGEYSIDPDYRGPFRSGINGYRSKENIMEFAIKKNYFEASWLYNMWMHYQDRYSLDNDWQGWNGGNLAPSRDLYGNLYQDKLGMPFEKFPDGDIRKKAFRVISNDGDYEGFFLMGTQYKFDYEKGYGFTDEVITGTEEYNGKPLVYVDQVGRFSEGETGLAKGSHVIYGEENTGYRLIKFPWLPQSKDLFQMNSIPEIRLAEIYYSLAECKYRSGDKIGAARLLDVVRKRYYKAEDWSKFSYESNISKLTDDEFVDELGREFIGERHRRIDLIRWNRFSEGAWWDKTPDATNQDVFPIPYRALNANPLLKQTTAGF,glycan array binding signal (z-score),[1],-0.007
same,glycan array binding signal (z-score),[2],-0.243
same,glycan array binding signal (z-score),[3],-0.476
same,glycan array binding signal (z-score),[4],-0.76
same,glycan array binding signal (z-score),[5],-0.502
same,glycan array binding signal (z-score),[6],-0.714
same,glycan array binding signal (z-score),[7],-0.161
same,glycan array binding signal (z-score),[8],0.26
same,glycan array binding signal (z-score),[9],-0.133
same,glycan array binding signal (z-score),[10],0.905
same,glycan array binding signal (z-score),[11],1.74
same,glycan array binding signal (z-score),[12],2.66
same,glycan array binding signal (z-score),[13],-0.697
same,glycan array binding signal (z-score),[14],-0.522
same,glycan array binding signal (z-score),[15],-0.554
same,glycan array binding signal (z-score),[16],-0.616
same,glycan array binding signal (z-score),[17],-0.49
same,glycan array binding signal (z-score),[18],0.695
same,glycan array binding signal (z-score),[19],-0.308
same,glycan array binding signal (z-score),[20],1.22
same,glycan array binding signal (z-score),[21],-0.397
same,glycan array binding signal (z-score),[22],-0.037
same,glycan array binding signal (z-score),[23],-0.593
same,glycan array binding signal (z-score),[24],-0.644
same,glycan array binding signal (z-score),[25],-0.496
same,glycan array binding signal (z-score),[26],-0.436
same,glycan array binding signal (z-score),[27],0.528
same,glycan array binding signal (z-score),[28],-0.052
same,glycan array binding signal (z-score),[29],0.036
same,glycan array binding signal (z-score),[30],-0.373
same,glycan array binding signal (z-score),[31],-0.231
same,glycan array binding signal (z-score),[32],-0.704
same,glycan array binding signal (z-score),[33],-0.251
same,glycan array binding signal (z-score),[34],-0.043
same,glycan array binding signal (z-score),[35],-0.374
same,glycan array binding signal (z-score),[36],-0.754
same,glycan array binding signal (z-score),[37],-0.252
same,glycan array binding signal (z-score),[38],1.46
same,glycan array binding signal (z-score),[39],0.711
same,glycan array binding signal (z-score),[40],0.137
same,glycan array binding signal (z-score),[41],0.515
same,glycan array binding signal (z-score),[42],-0.154
same,glycan array binding signal (z-score),[43],-0.199
same,glycan array binding signal (z-score),[44],3.24
same,glycan array binding signal (z-score),[45],-0.589
same,glycan array binding signal (z-score),[46],2.14

# From the supplement of paper PMC8728848
